# Assay results as given in the supplement of paper PMC11417369.
# This is one part of the list.
# Test system: PfSIP2 AP2 domain 1 (GST-tagged)
# Experiment: gcPBM binding intensity (ln(normalized median fluorescence intensity)); higher = stronger DNA binding
# In short: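 Using an Agilent 4 × 180k array, primer-extended double-stranded 36-bp intergenic genomic probes and negative controls were exposed for 1 h to GST-fused P. falciparum DNA-binding domains expressed in E. coli. Binding was carried out in 1× PBS with 1% milk, 0.2 mg/ml BSA, 0.5% salmon testes DNA and 0.03% Triton X-100, and protein was detected with Alexa488 anti-GST antibody and a 488 nm scan. Binding intensity is the highest Masliner-normalised natural-log median intensity across replicate spots of either probe orientation.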
row,Sequence,gcPBM binding intensity (ln)
1,ATATTAAATTCAATTTAATGTTTTGTGAATTTTAGA [CACACA_negctrl_site1421],6.66
2,TTAAATGGAAAAATATGTACATATATATATATATTT [XGTACX_site2286],7.31
3,TGAACTCATAGATTTAGTACATATATAAAAAAATTC [XGTACX_site1692],6.93
4,TATACACGCGGACACACACACACACGCAAAAAAAAA [CACACA_site6377],7.47
5,TAAAAACCAAAGAAAAGTACAAATTTAAATGAGAAA [XGTACX_site7450],6.88
6,TTTACACCGTAATATGCATGTGTGTATATATTTTTG [TGCATGCA_site186],6.97
7,ATAAGCCATTTTTGTGGTACATAAAATAGATATATA [XGTACX_site5175],6.83
8,CATCTTAGTTTGAGTTGTACAATATTTATAAAAATA [XGTACX_site693],7.6
9,ACAAGTTTAACATTTCGTACTTATTGTGTTTTTTTT [XGTACX_site5487],6.85
10,ATATATATTTAAAGATGTACATAATGAAATGGTTAT [XGTACX_site4706],7.36
11,GCAGTATTTCGGAACACACAAACATAAATATGTATT [CACACA_site2316],7.11
12,ATATATATATATGTATGTACATATTTTTTTTAACAC [XGTACX_site8475],9.06
13,GCACAATTTACACTTAAACACACAAAAAAAAATTAT [CACACA_site8642],7.39
14,AGCACAGACGGACACACACACACACCCACAGACACA [CACACA_site4358],7.23
15,AAATTTATTTATTATAGTACACTTAATACTACCCAA [XGTACX_site41],6.87
16,TAGTTTTCTTAAAGATGTACTTATTAAAAATAAACT [XGTACX_site1001],7.08
17,AATGATTGATTTTATTGTACGTACTCGGAATATGGT [XGTACX_site4976],7.35
18,TATAGATAAATTATTTGTACTTATAAAATTATTATA [XGTACX_site2870],6.74
19,GAATTTTAAATAAACATATAAACAGAAAAAAAAAAA [TGCATGCA_negctrl_site149],6.86

row,Sequence,gcPBM binding intensity (ln)
1,TTATCTTACATATATCATTAAATCATATAACAAAAA [XGTACX_negctrl_site517],7.08
2,AACCTCATGGACATATGTACACATATACAATTATTT [XGTACX_site6533],7.42
3,CACAAATATACAAATACACACAAATATACGCATATA [CACACA_site2384],7.04
4,CCTTTATAATTGGAAACACACATATAAAGTATATAT [CACACA_site3900],6.9
5,GTTATATTTAAAATAGTGCAATAAAAATAATAATAT,8.42
6,TTATGTATTTTAAATGGTTTTATTATAAAGTTTAAT [CACACA_negctrl_site1470],6.81
7,TACATAACTTTAATCACACACAAACAAACACATACA [CACACA_site6235],7.17
8,ATATAATATATATACAAACACACAATTGTGTCCACA [CACACA_site1748],7.18
9,AAAATACATGGACACACACACACACCGATATATATA [CACACA_site5885],7.4
10,AAATATACATATATATGTACATATAAATATATTTTA [XGTACX_site5266],7.03
11,TCTTACAAGGAACTAATAAAATTGTAGTTTGTATTT [CACACA_negctrl_site386],6.59
12,TTATTATTTATTTTTTATTATTATTATTTTTTTTTA [XGTACX_negctrl_site76],6.59
13,CATATATTTTGAAACACACACATATAAAATATACAT [CACACA_site6664],7.08
14,AAGTATTTCCTAAAATGTACATATAAATAAGTATAT [XGTACX_site1282],6.97
15,AAATCTTAATAAAGTTGTACATAATTATGTTTAATA [XGTACX_site3348],6.95
16,TTAAAATTAAAATACGTACACACCTTATCTTTTTGG [CACACA_site7982],7.08
17,GAAAAGATTTAAAAATGTACAAAAGAAAAAAAAAAA [XGTACX_site6916],6.81
18,TGGTTATAATTGTACGCATGTAATTACATATTCTCT [TGCATGCA_site599],7.08
19,AATATGCCTCCCCAAAAAAAATATATATATATTTAT [GTGCAC_negctrl_site716],7.37

row,Sequence,gcPBM binding intensity (ln)
1,TATATTTAAATATATACACACATTATCATTTTCATA [CACACA_site1708],6.94
2,TTTTTTACTATATCAATTACAAAACAAAAAAAAAAA [GTGCAC_negctrl_site683],7
3,TATCATTTGGTCTTTTACTTTTTCTGTTTTTTTTTT [CACACA_negctrl_site976],6.8
4,AAATATGTTTCAAAAAGTACATTTCTATCTTTTTTT [XGTACX_site7178],6.84
5,TGATAAAATATTAAATTATTTCTTTATTTAAAGATT [CACACA_negctrl_site370],6.67
6,AAATTATTATGAAATGGAAAATGCATAAATTGTTTT [XGTACX_negctrl_site206],6.77
7,ATTAAATAATAATAATGTACGTATTATATTAATACA [XGTACX_site5439],7.15
8,TAAAATTTAAAATATACACACAAAAAGTTATTACAA [CACACA_site4080],6.93
9,CTCTTTAAAAATATGGGTACAAAAAAAAAAAAAATA [XGTACX_site6185],7.04
10,ATTCTTTACTCATAAAATTATATTATATAAACTTTT [XGTACX_negctrl_site554],7.5
11,AAAACAGTGACAACTCGTACTTATATTTTTTTTTGT [XGTACX_site4968],6.79
12,AGGCCCTATGTTGTTACACACATAGAATGATACATC [CACACA_site1266],6.7
13,CAAAGATAAAATGATGCACACAAAAGGGTGTAATAT [CACACA_site8499],7.3
14,TATATTTATTTATATGTATGCATGTCTGTATATGCT [TGCATGCA_site339],6.88
15,AAAGTACAATCATAATCACACGTGTCTATTATATAC [CACACA_site8103],6.84
16,ACATGGTTTACACGTGCATGTGGATGACTGGACATT [TGCATGCA_site640],7.68
17,AATACGACAAACAAATGTACAAATAAATATTCGCGT [XGTACX_site6427],6.9
18,TGAGAAAATTAAAAGGTGCTCAGAAATTTTATATTA [GTGCAC_site9954],7.75
